Data: the supplement of paper PMC11417369
± gives the standard deviation of the averaged measurements. Some of the results follow.

System: PfAP2-G AP2 domain (GST-tagged)
Assay: gcPBM binding intensity (ln(normalized median fluorescence intensity)); higher = stronger DNA binding
Method in brief: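 The binding buffer was 1× PBS containing 1% milk, 0.2 mg/ml BSA, 0.5% salmon testes DNA and 0.03% Triton X-100. In it, GST-tagged P. falciparum DNA-binding domains expressed in E. coli were applied for 1 h to an Agilent 4 × 180k array of primer-extended double-stranded 36-bp intergenic genomic probes plus negative controls. Binding intensity, read with Alexa488 anti-GST antibody and a 488 nm scan, is the highest Masliner-normalised natural-log median intensity across replicate spots of either probe orientation.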

**Q.** “AACTTTGGCAAACACACACACACACCCACACCCACA [CACACA_site588]” was tested. Which “gcPBM binding intensity (ln)” value did it give?
**A.** The value was 10.5 ± 0.45.

**Q.** Which “gcPBM binding intensity (ln)” value does the source give for “TATTTTTCCATATGCACACACACCGTATCTAGAATA [CACACA_site6654]” here?
**A.** Its value is 10.3 ± 0.22.

**Q.** How did the “gcPBM binding intensity (ln)” value turn out when “TACATAAACATTTATACACACATTATGTATACATAT [CACACA_site405]” was run?
**A.** The value was 10.04 ± 0.035.

**Q.** Which “gcPBM binding intensity (ln)” value does the source give for “TTTTTGTAATGACACACACACAAACAGAAAAAATAA [CACACA_site7062]” here?
**A.** Its value is 10.4 ± 0.35.

**Q.** With “TTTTTTTTTTGCACGTGTACATAAAAATATATATAT [XGTACX_site3116]” as the sequence, how does the “gcPBM binding intensity (ln)” value read?
**A.** Its value is 11.6 ± 1.

**Q.** How did the “gcPBM binding intensity (ln)” value turn out when “AAAATATATTCAACTTGTACATATATATATATATAT [XGTACX_site7629]” was run?
**A.** The value was 11.1 ± 0.76.

**Q.** Which “gcPBM binding intensity (ln)” value does the source give for “ATATATGTGCTAAAATGTACATAGTATAATATATTT [XGTACX_site1949]” here?
**A.** The value was 10.9 ± 0.37.

**Q.** How did the “gcPBM binding intensity (ln)” value turn out when “TTTAATCATTTTAGCTTACACACAAAATTTTGTTAT [CACACA_site2938]” was run?
**A.** The value was 10.015 ± 0.007.

**Q.** For “ATATTTAAGATTTAATCACACACATATATATTATAT [CACACA_site8946]”, which “gcPBM binding intensity (ln)” value is on record?
**A.** Its value is 9.83 ± 0.028.

**Q.** Which “gcPBM binding intensity (ln)” value does the source give for “ATAAAATAAAGGAAAAATATTAAGTTTTAAGAAAAT [CACACA_negctrl_site1066]” here?
**A.** Its value is 9.66 ± 0.2.

**Q.** Which “gcPBM binding intensity (ln)” value does the source give for “TTATATATTTTGATTGCACACAGAATTTAAATCATG [CACACA_site8735]” here?
**A.** Its value is 10.2 ± 0.12.

**Q.** “ATATGTATTTAATTCACACAAAAATATGTTCATGAA [CACACA_site5223]” was tested. Which “gcPBM binding intensity (ln)” value did it give?
**A.** The value was 9.92 ± 0.014.

**Q.** Which “gcPBM binding intensity (ln)” value does the source give for “ATATTATTAATATATTGTACTTTTTTTTTTTTATTT [XGTACX_site496]” here?
**A.** Its value is 11.5 ± 0.91.

**Q.** With “CACATTATGTATCATACACACAAATAAATATATAAT [CACACA_site4505]” as the sequence, how does the “gcPBM binding intensity (ln)” value read?
**A.** Its value is 10.4 ± 0.19.

**Q.** For “ATATATTAATAATAAATTAAAAGGAGTAACATTTTC [CACACA_negctrl_site320]”, which “gcPBM binding intensity (ln)” value is on record?
**A.** Its value is 10.1 ± 0.11.

**Q.** For TGAAAATAATTATAGGTGCATAAACATACGGATCTT, which “gcPBM binding intensity (ln)” value is on record?
**A.** Its value is 10.21 ± 0.021.

**Q.** “TTTTTTTTGTATTTTTCACACACTCTCTATCTCTCT [CACACA_site8655]” was tested. Which “gcPBM binding intensity (ln)” value did it give?
**A.** The value was 10 ± 0.14.

**Q.** With “TATAAAAATAATATTACACACATGTAAAATGCCCGT [CACACA_site7522]” as the sequence, how does the “gcPBM binding intensity (ln)” value read?
**A.** The value was 9.96 ± 0.099.

**Q.** For “AAGAAAATAAAGGATATGAAAAATAAAAAAAAGGAG [TGCATGCA_negctrl_site265]”, which “gcPBM binding intensity (ln)” value is on record?
**A.** The value was 10.3 ± 0.27.

**Q.** How did the “gcPBM binding intensity (ln)” value turn out when “AGGTTAAAAATAAATACACACATTTTATGGGTGTAT [CACACA_site4702]” was run?
**A.** Its value is 9.87 ± 0.028.

**Q.** For “TTTTTTTTTTTCTTTGCACACAGATAACTTGAAATT [CACACA_site2184]”, which “gcPBM binding intensity (ln)” value is on record?
**A.** The value was 10.1 ± 0.25.

**Q.** “AATTTAATTATGGTAACACACAATAAAAAAAAATCT [CACACA_site568]” was tested. Which “gcPBM binding intensity (ln)” value did it give?
**A.** Its value is 10.4 ± 0.42.

**Q.** How did the “gcPBM binding intensity (ln)” value turn out when “ATATTTTATTTTCCATGTACACAAAAAAAAAAAAAA [XGTACX_site8327]” was run?
**A.** Its value is 11.4 ± 0.96.

**Q.** With “TAATATATAAGAAACAAAAAAAAATAAAAATATATA [TGCATGCA_negctrl_site153]” as the sequence, how does the “gcPBM binding intensity (ln)” value read?
**A.** Its value is 9.47 ± 0.39.

**Q.** How did the “gcPBM binding intensity (ln)” value turn out when “TAAAATAATTCGTAACGTACATATGTAATATAATAT [XGTACX_site6126]” was run?
**A.** The value was 11.1 ± 0.62.

**Q.** With “CGCATACACGGACACACACACACATATATATATATA [CACACA_site4520]” as the sequence, how does the “gcPBM binding intensity (ln)” value read?
**A.** The value was 11.3 ± 0.7.

**Q.** How did the “gcPBM binding intensity (ln)” value turn out when “AAAAAAAAAAAACACACACACACACTAATATATAAA [CACACA_site8302]” was run?
**A.** Its value is 10 ± 0.34.

**Q.** With “ATATTACAACGTAACGAATATTTCATAAATTCTTAA [CACACA_negctrl_site770]” as the sequence, how does the “gcPBM binding intensity (ln)” value read?
**A.** Its value is 9.705 ± 0.078.

**Q.** “AGCTCTATATTTTACACATGCGATTTGGATATATAT [TGCATGCA_site105]” was tested. Which “gcPBM binding intensity (ln)” value did it give?
**A.** Its value is 10.01 ± 0.035.

**Q.** “TAAATATATATCATCACACACACATACATAAATATA [CACACA_site183]” was tested. Which “gcPBM binding intensity (ln)” value did it give?
**A.** Its value is 10 ± 0.2.

**Q.** “CCTTTATATTATAAAAGTACATAATATTTTATAAGT [XGTACX_site1629]” was tested. Which “gcPBM binding intensity (ln)” value did it give?
**A.** Its value is 11.5 ± 1.

**Q.** “ATTTCTCAATCGTAATGTACAAAAAAAAGGAAAAAA [XGTACX_site1193]” was tested. Which “gcPBM binding intensity (ln)” value did it give?
**A.** Its value is 10.7 ± 0.53.

**Q.** “TTATATAGATGGAATAGTACAGTATATATATATATA [XGTACX_site8755]” was tested. Which “gcPBM binding intensity (ln)” value did it give?
**A.** Its value is 11.3 ± 0.76.

**Q.** “AAGGTTATATAAAAAAGTACGCATAAGATGTTGTTC [XGTACX_site807]” was tested. Which “gcPBM binding intensity (ln)” value did it give?
**A.** Its value is 11.3 ± 0.78.

**Q.** For “ATTAGAAAAAAGATAGCACACACGGCCCAATATATA [CACACA_site2417]”, which “gcPBM binding intensity (ln)” value is on record?
**A.** The value was 10.21 ± 0.092.

**Q.** How did the “gcPBM binding intensity (ln)” value turn out when “TGAAATTTATAATAGTGTACAAAGAAAAAAAAAAAA [XGTACX_site4965]” was run?
**A.** Its value is 11 ± 0.78.

**Q.** For “TACTGTATTATAATTATGATTGACGAAATTAAAAAT [GTGCAC_negctrl_site358]”, which “gcPBM binding intensity (ln)” value is on record?
**A.** Its value is 10 ± 0.11.

**Q.** How did the “gcPBM binding intensity (ln)” value turn out when “ACGACATATGGATGATGTACTATCTTTATTATACAT [XGTACX_site6857]” was run?
**A.** Its value is 11 ± 0.73.

**Q.** With “TAAATAATGTAAAAAACATCATCAAAATGTTAATTA [CACACA_negctrl_site1768]” as the sequence, how does the “gcPBM binding intensity (ln)” value read?
**A.** The value was 9.415 ± 0.078.

**Q.** For “TCTCAAAAAAAAAAAAAAAAAAAAAAATTAAAAAAT [CACACA_negctrl_site1120]”, which “gcPBM binding intensity (ln)” value is on record?
**A.** Its value is 9.4 ± 0.014.

**Q.** How did the “gcPBM binding intensity (ln)” value turn out when “TTTATGGATGTGTATGCATGCCTAAATAAATATATG [TGCATGCA_site916]” was run?
**A.** Its value is 10.04 ± 0.057.

**Q.** “GATGAGGACAAACACACACACATAAGTTGATACATA [CACACA_site3424]” was tested. Which “gcPBM binding intensity (ln)” value did it give?
**A.** Its value is 11 ± 0.83.

**Q.** How did the “gcPBM binding intensity (ln)” value turn out when “AGATAGATACATACACGTACATATATATATACACAT [XGTACX_site4755]” was run?
**A.** Its value is 11.4 ± 0.86.

**Q.** “CAATATAAAATAAAATGTACTTGTAGTAAAGGGATA [XGTACX_site1452]” was tested. Which “gcPBM binding intensity (ln)” value did it give?
**A.** The value was 11.1 ± 0.64.

**Q.** With “ATAAAGGTTTTCCAAGCATGCCACATAGTGACATAC [TGCATGCA_site193]” as the sequence, how does the “gcPBM binding intensity (ln)” value read?
**A.** Its value is 9.985 ± 0.064.

**Q.** How did the “gcPBM binding intensity (ln)” value turn out when “TATTACTTGATATATACACACATATAACATAAATGC [CACACA_site7783]” was run?
**A.** The value was 10.1 ± 0.25.

**Q.** For “TATAAATATATATATACACACACATACACAAAAAAA [CACACA_site9191]”, which “gcPBM binding intensity (ln)” value is on record?
**A.** The value was 10.3 ± 0.3.

**Q.** Which “gcPBM binding intensity (ln)” value does the source give for “ATATATTATATGTACACACACATATAAGGGATTATA [CACACA_site5]” here?
**A.** The value was 11.4 ± 0.9.

**Q.** How did the “gcPBM binding intensity (ln)” value turn out when “TAGAATAAACCAAGAAGTACTGTTTAATGAAAAGTA [XGTACX_site5712]” was run?
**A.** The value was 11.1 ± 0.71.

**Q.** Which “gcPBM binding intensity (ln)” value does the source give for “ATACCTAAAAAATATACACACATATTTATAAATATA [CACACA_site7260]” here?
**A.** The value was 9.98 ± 0.042.

**Q.** “GTCATATTATTCTTTTCACACACGCGTTAATAATAA [CACACA_site9302]” was tested. Which “gcPBM binding intensity (ln)” value did it give?
**A.** Its value is 10.4 ± 0.24.

**Q.** With “AAAATAACATAAAAGAGTACTAAACCAAGATCAAAT [XGTACX_site7973]” as the sequence, how does the “gcPBM binding intensity (ln)” value read?
**A.** The value was 11 ± 0.48.

**Q.** How did the “gcPBM binding intensity (ln)” value turn out when “TATATTTATATTCTTACATTTTTTATGTTTTTTTTT [CACACA_negctrl_site1017]” was run?
**A.** Its value is 9.55 ± 0.27.

**Q.** “TAAACAGACATATAAACACACATATAAACCGACATA [CACACA_site2478]” was tested. Which “gcPBM binding intensity (ln)” value did it give?
**A.** Its value is 10 ± 0.12.

**Q.** How did the “gcPBM binding intensity (ln)” value turn out when “TATTATAATATGTAGCGTACATTTTTTCTTTCTTTT [XGTACX_site7831]” was run?
**A.** The value was 11.1 ± 0.61.

**Q.** With “ATAAATCAAATGCACACACACAAAAAAAAAAAAAAA [CACACA_site6221]” as the sequence, how does the “gcPBM binding intensity (ln)” value read?
**A.** Its value is 9.96 ± 0.46.
